Laboratory results taken from paper PMC4336329 (PLoS ONE, 2015).
About 2,200 (0.71%) of roughly 310,000 compounds showed an effect of 50% or more. The effect is printed as a negative number. Some of the results follow.

Target: human ether-à-go-go-related gene (hERG) potassium channel (human, UniProt Q12809)
Assay: primary screen, population patch clamp on CHO cells stably expressing hERG

Sequence of human ether-à-go-go-related gene (hERG) potassium channel (Q12809 whole entry, looked up): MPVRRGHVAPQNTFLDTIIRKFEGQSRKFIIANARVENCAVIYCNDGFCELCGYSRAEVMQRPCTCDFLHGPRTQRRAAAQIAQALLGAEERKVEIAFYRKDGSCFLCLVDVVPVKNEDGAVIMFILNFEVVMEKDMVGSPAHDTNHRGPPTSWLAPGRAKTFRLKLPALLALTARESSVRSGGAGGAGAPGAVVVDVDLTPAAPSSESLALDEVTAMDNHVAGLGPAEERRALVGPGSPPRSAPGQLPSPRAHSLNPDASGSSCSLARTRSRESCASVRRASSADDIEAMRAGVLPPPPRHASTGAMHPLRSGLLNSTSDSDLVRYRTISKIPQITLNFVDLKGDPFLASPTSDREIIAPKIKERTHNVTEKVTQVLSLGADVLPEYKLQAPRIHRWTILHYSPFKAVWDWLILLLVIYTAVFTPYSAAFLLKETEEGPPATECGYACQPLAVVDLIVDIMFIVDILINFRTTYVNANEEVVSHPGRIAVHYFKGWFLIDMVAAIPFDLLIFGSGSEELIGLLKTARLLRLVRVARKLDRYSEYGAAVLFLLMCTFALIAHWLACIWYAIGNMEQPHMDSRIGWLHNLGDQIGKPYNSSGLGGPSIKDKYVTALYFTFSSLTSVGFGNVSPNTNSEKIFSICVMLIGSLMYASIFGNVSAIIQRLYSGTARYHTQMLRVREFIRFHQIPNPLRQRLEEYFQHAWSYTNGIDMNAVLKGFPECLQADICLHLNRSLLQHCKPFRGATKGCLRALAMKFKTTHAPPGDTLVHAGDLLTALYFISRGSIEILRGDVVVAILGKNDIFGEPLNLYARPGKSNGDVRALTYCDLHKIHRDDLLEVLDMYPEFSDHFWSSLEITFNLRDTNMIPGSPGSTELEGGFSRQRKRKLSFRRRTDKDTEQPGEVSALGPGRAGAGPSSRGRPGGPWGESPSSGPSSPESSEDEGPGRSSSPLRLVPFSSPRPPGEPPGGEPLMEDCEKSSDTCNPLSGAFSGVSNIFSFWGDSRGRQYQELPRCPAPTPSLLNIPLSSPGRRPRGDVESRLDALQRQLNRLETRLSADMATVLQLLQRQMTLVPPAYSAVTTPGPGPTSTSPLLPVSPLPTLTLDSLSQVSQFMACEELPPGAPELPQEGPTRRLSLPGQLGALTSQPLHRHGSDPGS

Row | SMILES | hERG current change (%, negative = inhibition) at 1uM [%]
1 | CCc1cccc(NC(=O)CCNC(=O)Cn2ccc3ccccc3c2=O)c1 | 13.4
2 | CCOc1cc(CN2CCN(C(=O)Cc3ccccc3)CC2)ccc1OC.O=C(O)C(=O)O | 10.3
3 | Cc1ccc(-n2nc(C)cc2Nc2ncc(Cl)cc2Cl)cc1 | 0.419
4 | O=C(O)c1ccc(Cl)c(NC(=S)NC(=O)c2ccccc2[N+](=O)[O-])c1 | 7.29
5 | COc1cc(C2C(C#N)=C(N)OC3=C2C(=O)CC(C)(C)C3)ccc1OC(=O)N1CCOCC1 (centres unmarked) | 8.93
6 | COc1ccc(C(C)=O)cc1CSc1nnc(C)n1-c1ccccc1 | 10.5
7 | CCSc1cc(C2C(C(=O)OC)=C(C)NC3=C2C(=O)CCC3)c(C)o1 (centres unmarked) | 0.16
8 | O=c1c2ccccc2c(-c2cccc(C(F)(F)F)c2)nn1-c1ccccc1 | 9.85
9 | Nc1ncnc2c1ncn2C1OC(CO)C(O)C1N (centres unmarked) | 3.17
10 | COC(=O)c1cccc(NC(=S)Nc2cccc(Cl)c2Cl)c1 | 12.2
11 | CC(NC(=O)CN(C)S(=O)(=O)c1ccc(F)cc1)C1CC2CCC1C2 (centres unmarked) | 12.4
12 | COc1cccc(NC(=O)c2ccc(NCCCN3CCC(C)CC3)c([N+](=O)[O-])c2)c1 | -18
13 | O=C(CCl)N1CCN(S(=O)(=O)c2ccc3c(c2)OCCCO3)CC1 | 13.1
14 | Nc1ccn(Cc2cccc(Cl)c2)n1 | 9.5
15 | O=C(/C=C/c1ccc(OCCCF)cc1)N1CCOCC1 | 6.4
16 | Brc1cccc(-c2nnc3n2CCC3)c1 | 13.3
17 | COc1ccc(-n2c(CN3CCN(c4ccc(F)cc4)CC3)nc3ccc([N+](=O)[O-])cc3c2=O)c(OC)c1 | -16.7
18 | C=CCc1ccc(OCC(O)COCC)c(OC)c1 (centres unmarked) | 6.22
19 | O=C(/C=C/c1ccc(S(=O)(=O)N2CCOCC2)cc1)N1CCN(c2ccc(F)cc2)CC1 | -5.03
20 | COc1ccc(CNCCc2cccc(F)c2)c2ccccc12.O=C(O)C(=O)O | -0.935
21 | CC(Sc1nnc(-c2cccs2)n1-c1ccccc1)C(=O)NCc1ccc2c(c1)OCO2 (centres unmarked) | -8.53
22 | COc1ccc(NS(=O)(=O)c2cccc(C(=O)NCC(c3ccco3)N3CCCC3)c2)cc1 (centres unmarked) | -10.2

Row | SMILES | hERG current change (%, negative = inhibition) at 1uM [%]
23 | CC(C)N1CCC(N2CCN(Cc3ccc4nonc4c3)CC2CCO)CC1 (centres unmarked) | -6.33
24 | O=S(=O)(Cc1cc(-c2ccccc2Cl)no1)c1ccccc1 | 6.09
25 | CCc1ccc(OCC2c3cc(OC)c(OC)cc3CCN2C(C)=O)cc1 (centres unmarked) | 3.59
26 | CCS(=O)(=O)c1ccc(C(=O)Nc2ccccc2)c(Cl)c1Cl | 16.2
27 | O=c1c2ccccc2nc(-c2ccccc2)n1CCN1CCOCC1 | 4.89
28 | COc1cccc(NC(=O)Cn2cc(C(=O)C3CC3)c3ccccc32)c1 | 0.882
29 | CCOc1cc(C(N)=O)cc(OCC)c1OCC | 10.4
30 | CCOC(=O)c1c(C)[nH]c(C2=NNC(=Nc3ccccc3OC)SC2)c1C | 12.7
31 | O=C(CCN1C(=O)c2ccccc2C1=O)NCc1cccc(Cl)c1 | 8.15
32 | CNC(=S)N(CCc1c(C)[nH]c2ccc(C)cc12)Cc1ccco1 | -2.69
33 | Cc1ccc(NS(=O)(=O)c2cccc(C(=O)NCC(c3ccc(F)cc3)N3CCOCC3)c2)cc1 (centres unmarked) | -2.41
34 | Cc1c(Br)c([N+](=O)[O-])nn1CC(=O)Nc1sc2c(c1C(=O)OC(C)C)CCCC2 | 7.2
35 | Cc1cccc(N2C(=O)c3ccc(Br)cc3C2=O)n1 | 13.7
36 | COCC(C)n1c(SCC(=O)Nc2nccs2)nc2ccccc2c1=O (centres unmarked) | 9.63
37 | Cc1cc(NC(=O)CSc2nnc(C3COc4ccccc4O3)n2N)no1 (centres unmarked) | 9.32
38 | CC(NC(=O)Cn1nc(C(=O)O)c2ccccc2c1=O)C12CC3CC(CC(C3)C1)C2 (centres unmarked) | 9.45
39 | CC1CN(S(=O)(=O)c2cccc(C(=O)NCc3ccco3)c2)CC(C)O1 (centres unmarked) | 6.67
40 | Cc1nn(-c2ccccc2)c(N)c1C(O)(CC(=O)C(F)(F)F)C(F)(F)F (centres unmarked) | 13.4
41 | CCCCOP(=O)(c1ccc(N(C)C)cc1)C(O)c1c(Cl)cccc1Cl (centres unmarked) | 4.88
42 | Cc1cccc(CN2C(=O)/C(=C\c3ccc(C(=O)NCCCN4CCN(C)CC4)cc3)Oc3ccccc32)c1 | 16.3
43 | O=C(CCc1ccccc1)Nc1cc2c3c(c1)CCC(=O)N3CCC2 | -1.85
44 | CNC(=S)N/N=C/c1ccccc1Cl | 4.07
